B1: Caulobacter ParB omega fusion; a variant is named by its letters at X, in order, B8GW30 (parent)
chain: MESVVVGEPGMSEGRRGLGRGLSALLGEVDAAPAQAPGEQLGGSREAPIEILQRNPDQPRRTFREEDLEDLSNSIREKGVLQPILVRPSPDTAGEYQIVAGERAWRAAQRAGLKTVPIMVRELDDLAVLEIGIIENVQRADLNVLEEALSYKVLMEKFERTQENIAQTIGKSXSHVANXMRLLXLPDEVQSYLVSGELTAXHARAIAAAADPVALAKQIIEGGLSVRETEALARKAPNLSAGKSKGGRPPRVKDTDTQALESDLSSVLGLDVSIDHRGSTGTLTITYATLEQLDDLCNRLTRGI

Whole data set: some 81,000 sequences, median “one-hybrid fitness for binding parS DNA” near -0.17, cut for the highest 2% near 0.51. The list shows a part of the results.

In the experiment the parent is B1. Kind of experiment: one-hybrid fitness for binding parS DNA (scaled: cognate 1, non-cognate 0); higher = stronger binding. The conditions noted are these: with parS DNA site. The method in brief:
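Fitness is the rescaled log change in variant-to-wild-type read ratio, measured by Illumina sequencing of plasmids before and after bacterial one-hybrid selection. The scale puts cognate at 1 and non-cognate at 0. Selection of Caulobacter ParB libraries, four specificity codons randomised, took place in E. coli USO with a HIS3 reporter, site 19 bp from the promoter, over 48 hours at 37°C on M9-minus-histidine with 0.1 mM IPTG and 5 mM 3-AT.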
As to VSSC, the “one-hybrid fitness for binding parS DNA” value was not above 0.2. The same measure for MANV: not above 0.2; for SEGS: not above 0.2. To FRLP belongs not above 0.2; to TSMM, not above 0.2; to FTTS, not above 0.2.

Take TVVV: the “one-hybrid fitness for binding parS DNA” value was not above 0.2. In the case of DYRM, the “one-hybrid fitness for binding parS DNA” value is not above 0.2. The same measure for TSFW: not above 0.2. In the case of MDHG, the “one-hybrid fitness for binding parS DNA” value is not above 0.2.

Turning to AIVV, the “one-hybrid fitness for binding parS DNA” value was not above 0.2. For VECG, the “one-hybrid fitness for binding parS DNA” value is not above 0.2. To HHAW belongs not above 0.2; to RPCK, not above 0.2; to RTDP, not above 0.2. The same measure for QTMR: not above 0.2. To QFEV belongs not above 0.2; to IAQS, not above 0.2; to NRND, not above 0.2. Regarding MPRL, the “one-hybrid fitness for binding parS DNA” value was not above 0.2. The same measure for SCFR: not above 0.2; for HPGW: not above 0.2. To HSNL belongs not above 0.2; to HKSR, not above 0.2; to AKTT, not above 0.2. To LARN belongs not above 0.2; to HSAW, not above 0.2. With FAKD, the “one-hybrid fitness for binding parS DNA” value was not above 0.2. LKAA: the “one-hybrid fitness for binding parS DNA” value was not above 0.2. To CALA belongs not above 0.2; to RSTS, 0.986. To TLFR belongs not above 0.2; to KTLG, not above 0.2; to VHLC, not above 0.2. To FTTE belongs not above 0.2. For ISQM, the “one-hybrid fitness for binding parS DNA” value is not above 0.2.

For the variant ERPL, the “one-hybrid fitness for binding parS DNA” value was not above 0.2. The same measure for ARRC: not above 0.2. As for RSHY, the “one-hybrid fitness for binding parS DNA” value was 0.491. To SLYD belongs not above 0.2; to SMYC, not above 0.2; to RSLV, not above 0.2.

With KKTS, the “one-hybrid fitness for binding parS DNA” value is not above 0.2. As to RYKE, the “one-hybrid fitness for binding parS DNA” value is not above 0.2.

EGFG: the “one-hybrid fitness for binding parS DNA” value was not above 0.2. To AQNV belongs not above 0.2.

TMVL: the “one-hybrid fitness for binding parS DNA” value is not above 0.2. Regarding LQQS, the “one-hybrid fitness for binding parS DNA” value was not above 0.2. On to QATP, for which the “one-hybrid fitness for binding parS DNA” value is not above 0.2. Take QEKE: the “one-hybrid fitness for binding parS DNA” value was not above 0.2.

On to AMNH, for which the “one-hybrid fitness for binding parS DNA” value is not above 0.2. The same measure for RGHW: not above 0.2; for EMFG: not above 0.2. The same measure for DLSA: not above 0.2; for NCYL: not above 0.2. IFPE: the “one-hybrid fitness for binding parS DNA” value is not above 0.2. The same measure for GADT: not above 0.2. Take ANYS: the “one-hybrid fitness for binding parS DNA” value is not above 0.2.

As to LDAL, the “one-hybrid fitness for binding parS DNA” value was not above 0.2. To QVRG belongs not above 0.2; to VGVT, not above 0.2; to EKMM, not above 0.2.

For HPKS, the “one-hybrid fitness for binding parS DNA” value was not above 0.2.

On to HVYC, for which the “one-hybrid fitness for binding parS DNA” value was not above 0.2. For the variant WRWT, the “one-hybrid fitness for binding parS DNA” value is not above 0.2. For RMPG, the “one-hybrid fitness for binding parS DNA” value came out at 0.775. To QWPA belongs not above 0.2; to GTYG, not above 0.2. Consider RWSS, for which the “one-hybrid fitness for binding parS DNA” value was 0.912.

As to RESK, the “one-hybrid fitness for binding parS DNA” value was not above 0.2. For NRAA, the “one-hybrid fitness for binding parS DNA” value was not above 0.2. To ESKF belongs not above 0.2; to YQTR, not above 0.2; to GFNT, not above 0.2. To WGNR belongs not above 0.2. The same measure for TLRH: not above 0.2; for CEIK: not above 0.2. On to NSTG, for which the “one-hybrid fitness for binding parS DNA” value was not above 0.2. Regarding EHTS, the “one-hybrid fitness for binding parS DNA” value is not above 0.2. On to AQPA, for which the “one-hybrid fitness for binding parS DNA” value is not above 0.2. The same measure for VRKW: not above 0.2; for PAAE: not above 0.2. Regarding ILTP, the “one-hybrid fitness for binding parS DNA” value is not above 0.2.

Consider HTQF, for which the “one-hybrid fitness for binding parS DNA” value is not above 0.2. On to FCNG, for which the “one-hybrid fitness for binding parS DNA” value was not above 0.2. The same measure for VRGW: not above 0.2; for YMPN: not above 0.2. The same measure for CNTL: not above 0.2; for WLRG: not above 0.2. The same measure for GDPS: not above 0.2; for QFPG: not above 0.2; for TVTK: not above 0.2.

Regarding ESLK, the “one-hybrid fitness for binding parS DNA” value was not above 0.2. To QHVR belongs not above 0.2. Consider RDQQ, for which the “one-hybrid fitness for binding parS DNA” value is not above 0.2. The same measure for VTKV: not above 0.2. To WLQG belongs not above 0.2; to WQLK, not above 0.2. The same measure for FRRV: not above 0.2.

For the variant HSSI, the “one-hybrid fitness for binding parS DNA” value is not above 0.2. The same measure for QRLG: not above 0.2. To VGTT belongs not above 0.2.

Take CGAI: the “one-hybrid fitness for binding parS DNA” value is not above 0.2. To TSHP belongs not above 0.2; to EPGR, not above 0.2; to CPRY, not above 0.2.

As to KPHQ, the “one-hybrid fitness for binding parS DNA” value is not above 0.2. With MRVV, the “one-hybrid fitness for binding parS DNA” value was not above 0.2.

In the case of VRYV, the “one-hybrid fitness for binding parS DNA” value was not above 0.2.

Take IMVT: the “one-hybrid fitness for binding parS DNA” value was not above 0.2. With ATIY, the “one-hybrid fitness for binding parS DNA” value is not above 0.2. To IKEC belongs not above 0.2; to GASA, not above 0.2. To AASL belongs not above 0.2; to HTCI, not above 0.2. To RKLC belongs 0.921; to TDLV, not above 0.2; to PGLH, not above 0.2.

Turning to LKVR, the “one-hybrid fitness for binding parS DNA” value was not above 0.2.

For MYNS, the “one-hybrid fitness for binding parS DNA” value was not above 0.2.

Regarding RCQL, the “one-hybrid fitness for binding parS DNA” value was not above 0.2. To GYAY belongs not above 0.2; to VHRY, not above 0.2; to NLQD, not above 0.2. For TCTA, the “one-hybrid fitness for binding parS DNA” value is not above 0.2. As for NAVS, the “one-hybrid fitness for binding parS DNA” value is not above 0.2. In the case of SPKQ, the “one-hybrid fitness for binding parS DNA” value is not above 0.2. To PRVW belongs not above 0.2. ETHH: the “one-hybrid fitness for binding parS DNA” value is not above 0.2. Consider EILP, for which the “one-hybrid fitness for binding parS DNA” value amounted to 0.345. As for RFIT, the “one-hybrid fitness for binding parS DNA” value was found to be 0.508. The same measure for RDAP: not above 0.2; for PMPY: not above 0.2; for RLYI: not above 0.2. CFMS: the “one-hybrid fitness for binding parS DNA” value is not above 0.2.

RLTY: the “one-hybrid fitness for binding parS DNA” value is 0.48. Regarding YIRW, the “one-hybrid fitness for binding parS DNA” value was not above 0.2.

On to EDST, for which the “one-hybrid fitness for binding parS DNA” value is not above 0.2. The same measure for YPGR: not above 0.2. With SKGR, the “one-hybrid fitness for binding parS DNA” value is not above 0.2. To YSRA belongs not above 0.2; to ICAY, not above 0.2; to QRSL, not above 0.2. The same measure for HQPT: not above 0.2. As to RVGD, the “one-hybrid fitness for binding parS DNA” value was not above 0.2. As for PCRE, the “one-hybrid fitness for binding parS DNA” value was not above 0.2. The same measure for KKTG: not above 0.2.

As to HVTF, the “one-hybrid fitness for binding parS DNA” value is not above 0.2. The same measure for PHLE: not above 0.2; for EDEN: not above 0.2. The same measure for ARVI: not above 0.2; for SVWS: not above 0.2; for KLKK: not above 0.2.

Values taken from a collection of fitness landscapes (doi:10.1016/j.celrep.2020.107928).
